# From the supplement of paper PMC3334620
# In all, about 33,000 sequences were measured (“E-score (-0.5 to 0.5)”: median about -0.035, highest 2% from about 0.34 on). The list shows a part of the results.
# Target: T1, Mot3 (UniProt P54785)
# T1 sequence: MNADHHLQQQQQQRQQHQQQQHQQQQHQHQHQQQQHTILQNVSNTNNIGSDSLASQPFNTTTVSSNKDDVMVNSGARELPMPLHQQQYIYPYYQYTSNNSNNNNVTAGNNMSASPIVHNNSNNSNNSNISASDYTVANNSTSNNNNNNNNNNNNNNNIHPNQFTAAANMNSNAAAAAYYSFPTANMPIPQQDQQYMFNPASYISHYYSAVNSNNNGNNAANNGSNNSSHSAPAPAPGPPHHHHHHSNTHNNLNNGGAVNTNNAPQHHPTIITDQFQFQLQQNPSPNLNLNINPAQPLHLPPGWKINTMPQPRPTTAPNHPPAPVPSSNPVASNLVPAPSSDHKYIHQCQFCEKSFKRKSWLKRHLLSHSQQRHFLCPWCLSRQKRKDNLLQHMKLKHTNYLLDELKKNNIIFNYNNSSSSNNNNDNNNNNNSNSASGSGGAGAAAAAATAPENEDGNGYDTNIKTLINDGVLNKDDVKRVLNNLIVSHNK
# Assay: PBM E-score (8-mer binding enrichment) (E-score (-0.5 to 0.5)); higher = stronger / more preferred TF binding; most listed sequences are background and not binding sites
# Conditions: protein concentration: 200 nM; construct: GST-full length
# Outline: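 Yeast transcription factors, full-length or as DNA-binding domains, were expressed with a GST tag using PURExpress in vitro transcription/translation. At about 100-200 nM they were applied to universal all-10-mer Agilent arrays, double-stranded by primer extension on fresh or once-stripped slides. Fluorescent anti-GST detected bound protein, and masliner normalised the scans. E-scores for ungapped eight-base words, pooled with reverse complements, came from the Universal PBM Analysis Suite.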
row,Sequence,PBM E-score
1,AATTAGCG,-0.0336
2,AGAACGTA,0.225
3,ACTTCCAG,-0.235
4,AGTAGCCG,-0.173
5,CCCGCGCC,-0.169
6,ACCGCTGG,-0.214
7,CAATGCGA,-0.0378
8,CGCCCAAC,-0.256
9,AGGGACAG,-0.31
10,CCACCCCG,-0.259
11,CCTCAAAC,-0.114
12,AGGTCCGA,-0.19
13,CTAGCTCC,0.0198
14,GAAGAGGA,-0.265
15,ACTCTTCT,-0.114
16,CCCTCCCC,-0.254
17,AACAATGA,0.142
18,AATGTCTC,-0.0809
19,ATTCTAAG,0.0116
20,ACTGACAG,0.0192
21,CAGGCGTC,0.212
22,ATGAACAG,0.0357
23,ATGCCGTG,0.0853
24,AAGCTAGC,-0.171

row,Sequence,PBM E-score
1,CCATAATC,-0.18
2,AGGCTGAC,-0.329
3,AGGTTTCC,0.13
4,GTTATTTA,0.287
5,AAAGCTGA,0.171
6,AGCTTAGC,-0.00961
7,CAATCGAC,0.0676
8,ACGAGAGT,-0.0612
9,GTGAAAAA,0.155
10,CCCTTAGG,-0.123
11,AGCGTTAG,-0.108
12,ATGAATAG,-0.0885
13,AGAGGAAC,0.0727
14,CTCCTCCA,-0.0499
15,AGAGTGCG,-0.0765
16,AGATCTAA,-0.00734
17,GCCCGTAA,0.119
18,GGAATAGA,-0.0446
19,CAGAGAAG,-0.103
20,CGACCGAA,-0.101
21,AAGGGTAT,-0.018
22,GAAGTTGA,-0.0119
23,AGAGTGGA,-0.0533
24,GCGACGAC,-0.289

row,Sequence,PBM E-score
1,GAACGCGC,0.147
2,ACCACAAT,-0.103
3,GCCGTTCA,-0.252
4,GAGACCTA,-0.143
5,CCATAGAG,-0.222
6,CCACTAGC,-0.224
7,CCACAAGG,0.094
8,GCGGATCC,-0.312
9,AATTCATG,0.241
10,AGGTGAAA,0.071
11,ACTCACAA,-0.0657
12,CAATGCCC,-0.0882
13,CACCGATC,-0.203
14,CTACCTTC,0.0953
15,ACGAGTTC,0.145
16,CAAGACAG,0.069
17,CAGCAATG,-0.122
18,AGACGGTG,-0.156
19,GGCCAACA,-0.054
20,CCCAGCGA,-0.0667
21,ACACAGAT,0.206
22,ATGGGGAC,-0.196
23,ACCTCTCA,-0.0845
24,CTACTAAC,0.182

row,Sequence,PBM E-score
1,ATGCCGAC,-0.0646
2,GCCGCCGC,-0.223
3,ACTACCCG,-0.117
4,CTCATCGA,-0.234
5,AAAGCAGC,-0.0796
6,CAAAGACG,-0.227
7,AACGCCAC,-0.058
8,CATGATTA,0.119
9,ATACCGGG,-0.126
10,CTACTGAC,-0.185
11,GGTGTCAC,0.0186
12,GCCAGACA,-0.159
13,AGTGCTGG,-0.23
14,CGGGAAGA,-0.0327
15,ATGTTATC,0.239
16,ACAAACTG,-0.104
17,AGGCGAGG,-0.279
18,AGTTATCA,-0.0877
19,CGCCTCCG,-0.126
20,GAGCTATA,-0.085
21,ATTCTCTG,-0.122
22,TGTATCAA,0.117
